Data on 34 variants can be found in the RNAGym collection of RNA variant scans (doi:10.1093/nar/gkz1192).

To fix the notation:
B1: CPEB3 Ribozyme (parent)
chain: UAACAGGGGGCCACAGCAGAAGCGUUCACGUCGCAGCCCCUGUCAGAUUCUGGUGAAUCUGCGAAUUCUGCUGUAUAUCUC

The source gives no read counts; variants with many changes may rest on few reads.

Variants of B1 are the subject of the data set. The data set can be described thus: self-cleavage, relative activity (ratio to wild type); higher = more cleavage; in vitro, sequencing. The method in brief:
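Libraries of CPEB3 self-cleaving ribozyme mutants came from rounds of error-prone PCR and carried barcodes, which DNA sequencing matched to variants. In vitro transcription used T7 RNA polymerase at 37°C for 5 hours, with a further 15 min in DNase I before EDTA stopped the reaction; the ribozymes cleaved during both steps. The RNA was reverse transcribed with template switching and sequenced on Illumina. Relative activity is the cleaved/total read fraction of a variant divided by that of the unmutated ribozyme, averaged over three batches with at least 5 reads.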
Turning to UAACAGGGGGCCACAGCUGAAGCGUUAACGUCGCAGCCCCUGUCAGAUUCUGGAGAACCUGCGAGUUCAGCUGUAUAUCUC [A18U C27A U54A U58C A65G U69A], the self-cleavage turned out to be 0.09. For UAACAGGGGGCCACAGCUGAAGCGUUCACGUCGCAGCCCCUGUCAGAUUCUGGUGAAUCUGCGAAUUCUGCUGUAUGCCUC [A18U A77G U78C] the value was 0.26. For UAACAGGGGGCCACAGCUGAAGCGUUCACGUCGCAGCCUCUGUCGGAUUAUGGUGAAUCUGCGAAUUCUGCUGUAUAUCUC [A18U C39U A45G C50A], the self-cleavage was determined as 0.16.

Consider UAACAGGGGGCCACAGCUGAAGCGUUCACGUCGCAGCCCCUGUCAGAUUCUGGUGACUCUGCGAAUUCUGCUGUAUAUCCC [A18U A57C U80C], for which the self-cleavage stood at 0.18. Regarding UAACAGGGGGCCACAGCUGAAGCGUUCACGUCGAAGCCCCUGUCAGAUUCUGGUGAAUCCGCGGAUUCUGCUGUAUAACUC [A18U C34A U60C A64G U78A], the self-cleavage worked out at 0.05.

As to UAACAGGGGGCCACAGCUGAAGCGUUCACGUCGCAGCCCCUGUCAGUUUCUGGUGAAUCACCGAGUUCUGCUGUAUAUCUC [A18U A47U U60A G61C A65G], the self-cleavage stood at 0.07. As to UAACAGGGGGCCACAGCUGAAGUGUUCUCGUCGCAGCCCCUGCCAGAUUCUGGUGAAUCUGCGAAUUCUGCUGUACACCUC [A18U C23U A28U U43C U76C U78C], the self-cleavage came out at 0.06.

For the variant UAACAGGGGGCCACAGCUGAAGCGUUCAAGUCGCAGCCCCUGUCAGAUUCUGGUGCCUCUGCGAAUUCUGCCGUAUAUCUC [A18U C29A A56C A57C U72C], the self-cleavage amounted to 0.08. Regarding UAACAGGGGGCCACAGCUGAAGCGUUCACGUUGCAGCCCCUGUCAGAUUCUGGUGAAUCUGCGAAUUCUGCUGUAUACCUC [A18U C32U U78C], the self-cleavage was found to be 0.17. Then UAACAGGGGGCCACAGCUGAAGCGUUCACGUCGCAGCUCCUGUCAGAUUCUGGUGAAUCUGCGAAUUCUGCUGUAUACCUC [A18U C38U U78C], with 0.15; and UAACAGGGGGCCACAGCUGAAGCGUUUACGUCGCAGCCCCUGUCAGAUUCUGGUGAAUCUGCGAAUUCUGCUGUAUGCCUC [A18U C27U A77G U78C], with 0.09; and UAACAGGGGGCCACAGCUGAAGCGUUUACGUCGCGGCCCCAGUCAGAUUCUGGUGAAUCUGCGAAUUCUGCCGUAUAUCUC [A18U C27U A35G U41A U72C], with 0.05.

For the variant UAACAGGGGGCCACAGCUGAAGCGUUCACGUCGCAGCCCCUGUCAGAUUCUGGUGGAUCUGCGAAUUCUGCUGUAUAUCCC [A18U A56G U80C], the self-cleavage was 0.32. For the variant UAACAGGGGGCCACAGCUGAAGCGUUCAUGUCACAGCCCCUGUCAGAUUCUGGUGAAUCUGCGAAUUCUGCUGUAUAUCUC [A18U C29U G33A], the self-cleavage came to 0.15.

For the variant UAACAGGGGGCCACAGCUGAAGCGUUCACGUCGAAGCCCCUGUCAGAUUCUGGUGUAUCUGCGAAUUCUGCUGAAUAUCUC [A18U C34A A56U U74A], the self-cleavage is 0.23. Then UAACAGGGGGCCACAGCUGAAGCGUUCACGUCGCAGCCCCUGUCAGAUUCUGGUGAAUCUGCGAAUUCUGCUGUAUUCCUC [A18U A77U U78C], with 0.37; and UAACAGGGGGCCACAGCUGAAGCGUUCACGUCGCAGCCCCUGUCAGAUUCUGGUGAAUCUGCGUAUUCUGCUGUAUACCUC [A18U A64U U78C], with 0.22. Then UAACAGGGGGCCACAGCUGAAGCGUUCACGUCGCAGCCCCUGUCAGAUUCUGGUGAAUCUGCGGAUUCUGCUGUAUAACUC [A18U A64G U78A], with 0.24; and UAACAGGGGGCCACAGCUGAAGCGUUCACGUCGCAGCCCCUGUCAGAUUCUGGUGAAUCUGCGAAUUACGCUGUAUAUCUC [A18U C68A U69C], with 0.26. Then UAACAGGGGGCCACAGCUGAAGCGUUCACGUCGCAGCGCCCGACGGAUUCUGGUGAAUCCGCGAAUUCUGCUGUAUAUCUC [A18U C38G U41C U43A A45G U60C], with 0.15; and UAACAGGGGGCCACAGCUGAAGCGUUUACGUCGCAGCCCCUGUCAGAUUCUGGUGAAUCUGCGAAUCCUGCUGUAUAUCUC [A18U C27U U67C], with 0.11; and UAACAGGGGGCCACAGCUGAAGCGUUCACGUCGCAGCUCCUGUCAGAUUCUGGUGAAUCUGCGAAUCCUGCUGUAUAUCUC [A18U C38U U67C], with 0.16. UAACAGGGGGCCACAGCUGAAGAGGUCACGUCGCAGCCCCUGUCAGAUUCUGGUGAAUCUGCGAAUUCUGCUGUAUAUCUC [A18U C23A U25G]: the self-cleavage stood at 0.35.

Regarding UAACAGGGGGCCACAGCUGAAGCGUUCACGUAGCAGCCCCUGUCAGAUCCUGGUGAAUCUGCGAAUUCUGCCGUAUAUCUC [A18U C32A U49C U72C], the self-cleavage worked out at 0.18. Then UAACAGGGGGCCACAGCUGAAGCGUUCAAGUCGCAGCCCCAGUCAGGUACUGGUGAAUCUGCGAUUCCUGCUGUAUAUCUC [A18U C29A U41A A47G U49A A65U U67C], with 0.06; and UAACAGGGGGCCACAGCUGAAGCGUUCACGUCGCAGCCUCUGUCAGAUUCUGUUGAAUCUGCGAAUUCUGCUGUAUAUCUC [A18U C39U G53U], with 0.16; and UAACAGGGGGCCACAGCUGAAGCGUUCACGUCGCAGCCCCUGUCAGAUUCUGGUGAAUCUGCGAUUUCUGGUGUCUAUCUC [A18U A65U C71G A75C], with 0.12. Then UAACAGGGGGCCACAGCUAAAGCGUUCACGUCUCAGCCCCUGUCAGAUUCUGAUGAAUCUGCGAAUUCCGCUGUAUAACUC [A18U G19A G33U G53A U69C U78A], with 0.15; and UAACAGGGGGCCACAGCUGAAGCGUUCACGUCGCAGCCCCUGUCAGAUUCUGGUGAAUCUGCGAGUUCUGCUGGAUAUCUC [A18U A65G U74G], with 0.41; and UAACAGGGGGCCACAGCUGAAGCGUUCACGUCGCAGCCCCUGUCAGAUUCUGGUGAAUCUGCGGAUUCUGCUGUAUAUCAC [A18U A64G U80A], with 0.15.

In the case of UAACAGGGGGCCACAGCUUAAGCGUACACGUCGCAGCCCCUGUCAGAUUCUGGUGAAUCUGCGAACUCUGCCGUAUAUCUC [A18U G19U U26A U66C U72C], the self-cleavage is 0.05. For UAACAGGGGGCCACAGCUGAAGCGUUCACGUCGCAGCCCCUGUCAGAUUCUGGUGAAUCUGCGGAUUCUGCUGUAUAUCUU [A18U A64G C81U] the value was 0.26. For UAACAGGGGGCCACAGCUGAAGCGUUCACGUCGCAGCCUCAGUCAGAUUCUGGUGAUUCUGCGAAUCCUGCUGUAUAUCUC [A18U C39U U41A A57U U67C] the value was 0.04.

UAACAGGGGGCCACAGCUUAAGCGUUCACGUCGCGGCCCCUGUCGGAUUCUGGAGAAUCUGCGAACUCUGCCGUAUAUCUC [A18U G19U A35G A45G U54A U66C U72C]: the self-cleavage worked out at 0.07.
